Some of the results follow. These are noisy estimates, calculated here from bound and input reads.

This experiment addresses T1, Pho4 (S. cerevisiae) (UniProt P07270).
T1 sequence: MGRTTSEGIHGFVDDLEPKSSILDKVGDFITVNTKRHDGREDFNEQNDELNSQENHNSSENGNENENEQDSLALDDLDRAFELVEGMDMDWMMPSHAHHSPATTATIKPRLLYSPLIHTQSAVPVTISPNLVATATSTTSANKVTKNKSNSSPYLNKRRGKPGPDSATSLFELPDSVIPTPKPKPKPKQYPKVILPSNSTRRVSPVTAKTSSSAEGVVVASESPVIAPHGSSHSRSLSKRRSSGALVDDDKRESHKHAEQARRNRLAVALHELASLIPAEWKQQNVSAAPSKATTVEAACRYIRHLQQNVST
Kind of experiment: relative binding free energy (BET-seq); higher = weaker binding. The note with it: reference: library average.
On to AAGTGCACGTGAGTAG, for which the “relative binding free energy” value is 0.1 kcal/mol.
The result for ATATTCACGTGGTTTA reads 0.16 kcal/mol; that for TATGGCACGTGGATTC, -0.11 kcal/mol.
The result for TCTTTCACGTGTGATG reads 0.3 kcal/mol; that for TGTGTCACGTGTGGTG, 0.15 kcal/mol; that for GTGCTCACGTGCGGGG, 0.18 kcal/mol.
GGGGGCACGTGCCTGT: the “relative binding free energy” value is -0.26 kcal/mol.
The result for TGTGACACGTGGCTGG reads -0.14 kcal/mol.
On to AGGGTCACGTGGGAAG, for which the “relative binding free energy” value stood at 0.15 kcal/mol.
Then TTGTCCACGTGATGAG, with 0.06 kcal/mol; and TAGATCACGTGGTTGC, with 0.22 kcal/mol; and CGTAACACGTGTCGGT, with 0.19 kcal/mol.
Regarding GGTGGCACGTGATTGA, the “relative binding free energy” value came to 0.08 kcal/mol.
For TTTTACACGTGTCGGA, the “relative binding free energy” value worked out at 0.29 kcal/mol.
For ATGTGCACGTGTTAGA, the “relative binding free energy” value was -0.07 kcal/mol.
As for AGGTTCACGTGCGTCG, the “relative binding free energy” value was found to be 0.39 kcal/mol.
The result for TGCAGCACGTGTGTTA reads 0.03 kcal/mol.
The result for GTTTACACGTGGTATG reads 0 kcal/mol; that for AGGAACACGTGGGAGA, 0.01 kcal/mol.
Then CTTATCACGTGTAGTA, with 0.23 kcal/mol; and TTGACCACGTGGTGGG, with -0.16 kcal/mol.
With TCGGGCACGTGTGTCT, the “relative binding free energy” value was -0.12 kcal/mol.
The result for TCATACACGTGGCGGG reads 0.1 kcal/mol; that for TGAGGCACGTGGCTGT, -0.18 kcal/mol; that for TGTCTCACGTGAGATT, 0.31 kcal/mol.
Then CCAGTCACGTGTAGGT, with 0.18 kcal/mol; and TACTGCACGTGGTTGG, with -0.03 kcal/mol; and TAATTCACGTGAGTGA, with 0.37 kcal/mol.
As for ATTTGCACGTGGCGGC, the “relative binding free energy” value was -0.03 kcal/mol.
Then CCAGTCACGTGTGTTG, with 0.1 kcal/mol; and TGCATCACGTGTTATT, with 0.16 kcal/mol; and CTTGGCACGTGATTTA, with -0.01 kcal/mol.
Then GGGTTCACGTGATTAT, with 0.6 kcal/mol; and CAGTGCACGTGCGGGG, with -0.15 kcal/mol; and AGAGACACGTGTATTA, with 0.17 kcal/mol.
With CGCTGCACGTGGGGAT, the “relative binding free energy” value was -0.07 kcal/mol.
Then GGGTACACGTGCCGGT, with 0.04 kcal/mol; and ATCGGCACGTGTTGAA, with 0.07 kcal/mol; and TTCTTCACGTGATATT, with 0.24 kcal/mol.
Then GTAAGCACGTGGACTT, with 0.04 kcal/mol; and TGTTACACGTGTATCT, with 0.28 kcal/mol; and TAATTCACGTGGGTGC, with 0.13 kcal/mol.
Then GGATGCACGTGATGTA, with 0.1 kcal/mol.
With GTTGACACGTGGATTA, the “relative binding free energy” value stood at 0.13 kcal/mol.
The result for GATGGCACGTGTTCGG reads 0 kcal/mol.
The result for AGTTTCACGTGTTTGG reads 0.15 kcal/mol.
Take GGAAACACGTGTTTGT: the “relative binding free energy” value was 0.03 kcal/mol.
As to TGAGACACGTGAAAGG, the “relative binding free energy” value is 0.16 kcal/mol.
For TGAGTCACGTGATAGA, the “relative binding free energy” value was 0.1 kcal/mol.
Then GTTAACACGTGAAGTT, with 0.18 kcal/mol; and GGTAGCACGTGTCGGA, with 0.05 kcal/mol.
As for CAGGACACGTGTAGGG, the “relative binding free energy” value worked out at 0.1 kcal/mol.
With ATGTGCACGTGGTTAT, the “relative binding free energy” value is -0.09 kcal/mol.
The result for TTAATCACGTGCGTAG reads 0.05 kcal/mol; that for TGAAGCACGTGAGTGG, 0.08 kcal/mol; that for ATGGCCACGTGGTTGA, -0.19 kcal/mol.
The result for ATGAGCACGTGCTGGA reads -0.15 kcal/mol; that for CGGTGCACGTGAAATG, 0.35 kcal/mol.
The result for AAAAGCACGTGATGTA reads 0.12 kcal/mol.
In the case of ATTCACACGTGGTATT, the “relative binding free energy” value was found to be 0 kcal/mol.
The result for AATATCACGTGTTGGT reads 0.07 kcal/mol; that for TTAGTCACGTGGCCTT, -0.07 kcal/mol; that for TGCGCCACGTGGTGGA, -0.11 kcal/mol.
Then GAGGGCACGTGGACGG, with 0 kcal/mol; and TCGGTCACGTGGTAGG, with 0.14 kcal/mol.
Then ATTGTCACGTGTCGTT, with 0.03 kcal/mol.
For TACTTCACGTGTCGGT, the “relative binding free energy” value is 0.24 kcal/mol.
Then TGACTCACGTGGTTAT, with 0.21 kcal/mol; and TTCGGCACGTGTGTAT, with -0.09 kcal/mol.
The result for TGTAGCACGTGAGAGC reads 0.13 kcal/mol.
Then CTGGGCACGTGGGGCT, with -0.22 kcal/mol; and TGTTTCACGTGTGGGT, with 0.34 kcal/mol.
Consider AGAGGCACGTGTTGGA, for which the “relative binding free energy” value was -0.12 kcal/mol.
The result for TTTTGCACGTGAGCGT reads 0.06 kcal/mol; that for TAGTCCACGTGTGAGT, 0.17 kcal/mol.
On to TGTTTCACGTGGATGA, for which the “relative binding free energy” value was determined as 0.19 kcal/mol.
Then TTTGACACGTGTGGTC, with 0.06 kcal/mol.
Then AGTATCACGTGACGGA, with 0.31 kcal/mol; and CGGGACACGTGGGGAA, with -0.15 kcal/mol.
The result for ATGCGCACGTGTGTGG reads -0.25 kcal/mol.
For the sequence CTGGTCACGTGATTGG, the “relative binding free energy” value was found to be 0.31 kcal/mol.
The result for CTGGGCACGTGTTCGG reads -0.04 kcal/mol.
Then GTAATCACGTGCTGTG, with 0.16 kcal/mol.
The result for ATAAACACGTGCGGGG reads -0.03 kcal/mol.
For the sequence ATGTGCACGTGTATTC, the “relative binding free energy” value was -0.06 kcal/mol.
TTTCGCACGTGCGGTG: the “relative binding free energy” value is -0.12 kcal/mol.
GTCGTCACGTGGGGGG: the “relative binding free energy” value is -0.08 kcal/mol.
Then TGGTGCACGTGACATG, with 0.04 kcal/mol; and GAGAGCACGTGTAAGT, with -0.01 kcal/mol.
The result for GTTTACACGTGGGTGG reads 0.02 kcal/mol.
The result for AAATGCACGTGTATAT reads -0.02 kcal/mol; that for ATTTACACGTGTGGGA, 0.17 kcal/mol.
As for TTTGGCACGTGGACGA, the “relative binding free energy” value was -0.06 kcal/mol.
Then TATTTCACGTGTTCTA, with 0.1 kcal/mol; and GGAGGCACGTGTCGGT, with -0.1 kcal/mol.
Then GTTGGCACGTGATGCA, with -0.04 kcal/mol.
Take ATGATCACGTGATGTT: the “relative binding free energy” value was 0.22 kcal/mol.
Then GGGAGCACGTGATACT, with 0.26 kcal/mol; and TAAGGCACGTGGTTAG, with -0.12 kcal/mol; and CGATTCACGTGATTGT, with 0.29 kcal/mol.
Then TTTGCCACGTGGAGGC, with -0.06 kcal/mol.
Then GCGTTCACGTGAGCGG, with 0.42 kcal/mol; and GATTGCACGTGGCAGT, with 0.08 kcal/mol; and GGTTGCACGTGGGCTC, with -0.06 kcal/mol.
For GATTTCACGTGGGGAC, the “relative binding free energy” value came out at 0.39 kcal/mol.
For TTTCGCACGTGTTTTG, the “relative binding free energy” value worked out at 0.05 kcal/mol.
The result for TATGGCACGTGGACGT reads -0.14 kcal/mol; that for AAGGGCACGTGGAAGT, 0.12 kcal/mol; that for GAATTCACGTGTGGAG, 0.18 kcal/mol.
Then GGGTGCACGTGATGTC, with 0.12 kcal/mol; and ATGATCACGTGACTGG, with 0.29 kcal/mol.
Turning to GGTCTCACGTGCGGGG, the “relative binding free energy” value was determined as 0.26 kcal/mol.
Then ATCTTCACGTGTTTTA, with 0.04 kcal/mol.
The result for TATATCACGTGATTTA reads 0.31 kcal/mol.
Then GGTCACACGTGAGTTT, with 0.4 kcal/mol; and TATCTCACGTGAAGTG, with 0.31 kcal/mol; and AAATTCACGTGAGAGG, with 0.37 kcal/mol.
On to TTCTTCACGTGGAATA, for which the “relative binding free energy” value was determined as 0.36 kcal/mol.
Then AGGGCCACGTGTGAGG, with 0.14 kcal/mol; and ATTTGCACGTGCTAGT, with -0.08 kcal/mol; and GGGGGCACGTGGCAAT, with -0.19 kcal/mol.
The result for AGTGTCACGTGTATTC reads 0.11 kcal/mol; that for GTCTTCACGTGATTTT, 0.33 kcal/mol; that for AGTTTCACGTGCGTAG, 0.15 kcal/mol.
As for TAGATCACGTGAGGTC, the “relative binding free energy” value came out at 0.46 kcal/mol.
The result for ATGCACACGTGTTTTT reads 0.13 kcal/mol; that for TTTGTCACGTGCCGGC, 0.22 kcal/mol; that for ATTTACACGTGATGAG, 0.29 kcal/mol.
The result for CGGGACACGTGTGGTG reads -0.07 kcal/mol; that for ACGGTCACGTGCGGTA, 0.11 kcal/mol.
The result for GAGGCCACGTGGGCGG reads -0.17 kcal/mol; that for AGTGTCACGTGATGAT, 0.17 kcal/mol.
Consider AAGGTCACGTGGAGAT, for which the “relative binding free energy” value is -0.02 kcal/mol.
Then GGTAACACGTGGTCGG, with -0.14 kcal/mol; and CTTGTCACGTGGGTCA, with -0.16 kcal/mol; and TGGGGCACGTGATGCC, with 0.07 kcal/mol.
Then GGTTGCACGTGAATAT, with 0.2 kcal/mol; and CGCATCACGTGGGGTG, with 0.03 kcal/mol; and TGTACCACGTGGGGCG, with -0.17 kcal/mol.
Then GCATGCACGTGGAGTT, with 0.08 kcal/mol.
For GGCGACACGTGTGGTG, the “relative binding free energy” value amounted to 0.15 kcal/mol.
Take TCAAGCACGTGTTATG: the “relative binding free energy” value was -0.02 kcal/mol.
On to GTAAGCACGTGTGGGA, for which the “relative binding free energy” value is -0.1 kcal/mol.
The result for AGATGCACGTGGTAAA reads -0.06 kcal/mol; that for GTGCGCACGTGGAAGG, 0.09 kcal/mol.
Then AGTGTCACGTGTTTCG, with 0.18 kcal/mol.

The values above are taken from the BET-seq Pho4 binding data (Le et al. 2018).
